# Data as given in the supplement of paper PMC7826260.
# The other results are listed elsewhere or left out. Each Rep nickase domain was tested in vitro on the same pool of single strands at 3 µM enzyme and 37 °C for 1 h; the strands have 90 letters, of which the middle is given. A value is the log2 ratio of uncut reads to the pool without enzyme; strong cutting gives strongly negative numbers. There is no active / inactive call. Because reads are shares of a total, they shift together, so uncut sequences can rise above 0 when many others are cut.
# Experiments:
# Assay in all cases: uncleaved DNA left, log2 of reads against the no-enzyme library (log2 ratio); higher = less cleavage (more negative = more Rep cleavage of the k-mer); sequences stand for … in CTCGTCCG…ACCGGAGA
# [1] = tested on: T1, Rep nickase domain of Muscovy duck circovirus
# T1 sequence (Rep 1-111, printed without the tag): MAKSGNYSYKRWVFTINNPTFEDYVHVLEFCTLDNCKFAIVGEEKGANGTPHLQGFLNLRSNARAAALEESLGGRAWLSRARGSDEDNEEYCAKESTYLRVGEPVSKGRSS
# Description: (§1)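 A pool of 90-nt single-stranded DNAs with seven random bases just before the constant AC of the nick site (name = the seven bases) was cut by 3 µM recombinant His6-SUMO-tagged Rep nickase domain (300 nM DNA, 50 mM HEPES pH 8.0, 50 mM NaCl, 1 mM MnCl2, 1 h, 37 °C, three replicates). Uncut DNA was amplified and sequenced.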
# [2] = tested on: T2, Rep nickase domain of banana bunchy top virus
# T2 sequence (Rep 1-94, printed without the tag): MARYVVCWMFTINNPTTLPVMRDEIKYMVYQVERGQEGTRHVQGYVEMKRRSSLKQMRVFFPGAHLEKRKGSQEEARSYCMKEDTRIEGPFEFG
# Description: as §1
# [3] = tested on: T3, Rep nickase domain of cabbage leaf curl virus
# T3 sequence (Rep 1-116, printed without the tag): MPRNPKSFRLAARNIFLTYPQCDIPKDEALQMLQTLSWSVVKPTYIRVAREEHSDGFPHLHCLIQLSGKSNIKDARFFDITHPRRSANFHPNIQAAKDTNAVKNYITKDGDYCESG
# Description: as §1
# [4] = tested on: T4, Rep nickase domain of chickpea chlorotic dwarf virus
# T4 sequence (Rep 1-124, printed without the tag): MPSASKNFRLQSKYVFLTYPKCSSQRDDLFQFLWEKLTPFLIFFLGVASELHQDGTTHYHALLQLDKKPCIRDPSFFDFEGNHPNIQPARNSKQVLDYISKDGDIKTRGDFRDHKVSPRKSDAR
# Description: as §1
# [5] = tested on: T5, Rep nickase domain of faba bean necrotic yellows virus
# T5 sequence (Rep 1-98, printed without the tag): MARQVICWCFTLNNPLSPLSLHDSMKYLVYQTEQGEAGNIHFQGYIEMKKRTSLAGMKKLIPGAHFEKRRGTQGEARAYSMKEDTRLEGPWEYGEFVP
# Description: as §1
# [6] = tested on: T6, Rep nickase domain of maize striate mosaic virus
# T6 sequence (Rep 1-117, printed without the tag): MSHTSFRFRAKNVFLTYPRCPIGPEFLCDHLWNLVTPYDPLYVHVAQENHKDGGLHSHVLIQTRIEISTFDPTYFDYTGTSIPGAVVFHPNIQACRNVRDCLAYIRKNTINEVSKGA
# Description: as §1
# [7] = tested on: T7, Rep nickase domain of porcine circovirus 2
# T7 sequence (Rep 2-116, printed without the tag): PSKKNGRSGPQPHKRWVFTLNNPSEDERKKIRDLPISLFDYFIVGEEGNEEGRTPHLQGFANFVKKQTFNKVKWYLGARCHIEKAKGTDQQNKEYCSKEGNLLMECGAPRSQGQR
# Description: as §1
# [8] = tested on: T8, Rep nickase domain of tomato golden mosaic virus
# T8 sequence (Rep 1-124, printed without the tag): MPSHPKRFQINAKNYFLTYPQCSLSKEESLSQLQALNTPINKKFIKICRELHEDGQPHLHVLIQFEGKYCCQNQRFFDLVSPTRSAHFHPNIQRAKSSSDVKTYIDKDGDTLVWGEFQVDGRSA
# Description: as §1
# [9] = tested on: T9, Rep nickase domain of tomato yellow leaf curl virus
# T9 sequence (Rep 1-136, printed without the tag): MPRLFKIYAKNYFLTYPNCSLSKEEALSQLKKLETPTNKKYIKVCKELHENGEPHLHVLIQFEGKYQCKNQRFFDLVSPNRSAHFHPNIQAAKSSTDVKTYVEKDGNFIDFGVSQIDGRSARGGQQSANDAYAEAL
# Description: as §1
# [10] = tested on: T10, Rep nickase domain of wheat dwarf virus
# T10 sequence (Rep 1-137, printed without the tag): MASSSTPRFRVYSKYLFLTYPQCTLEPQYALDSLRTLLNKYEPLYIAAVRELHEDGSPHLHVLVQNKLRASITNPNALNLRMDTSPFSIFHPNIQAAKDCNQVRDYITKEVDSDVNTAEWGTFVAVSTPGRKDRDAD
# Description: as §1
Sequence,uncleaved DNA left (log2) [1],uncleaved DNA left (log2) [2],uncleaved DNA left (log2) [3],uncleaved DNA left (log2) [4],uncleaved DNA left (log2) [5],uncleaved DNA left (log2) [6],uncleaved DNA left (log2) [7],uncleaved DNA left (log2) [8],uncleaved DNA left (log2) [9],uncleaved DNA left (log2) [10]
GTTGCCG,-0.0268,-0.149,-0.824,-0.239,-0.0623,-0.914,0.0645,-0.0871,-0.00714,-0.129
GTTCTCA,0.0836,0.183,0.358,0.955,0.0299,1.89,0.197,0.0792,0.119,0.11
CAACATC,0.0373,0.101,-0.232,-1.38,0.0405,-0.734,0.1,-0.0838,0.00502,0.0635
TCCTGGA,0.12,0.075,0.0141,-0.0545,0.0276,-0.307,0.00499,0.0424,-0.00678,0.0637
TACTGAG,-0.00588,0.0598,-0.714,-0.549,-0.0391,-1.06,0.216,-0.0349,0.0462,-0.0927
CAACGTT,-0.0288,-0.181,-2.06,-3.18,-0.04,-0.936,-0.888,-0.181,-0.026,-0.753
CATGTTA,-0.224,-0.082,-0.464,-1.91,-0.00459,-1.03,-0.364,-0.122,-0.0528,-0.124
CCTGGTC,0.112,-0.00313,0.378,0.151,0.106,-0.189,0.112,0.0561,0.14,-0.0186
TCGTAAT,-1.93,-0.274,-0.391,-1.4,-1.08,-0.151,-3.58,0.132,0.081,-0.152
ATGTGAT,0.0723,0.0103,0.166,1.47,-0.0211,1.73,-0.471,0.0968,-0.0621,0.0726
CGCCCTT,-0.048,-0.0635,0.266,-0.615,-0.217,0.569,-0.357,-0.227,-0.0058,0.0855
ATCGGAG,0.0377,-0.0296,-0.246,0.0695,0.0317,-0.729,0.191,0.0552,-0.0586,-0.0135
TCCGAAT,-0.163,-0.129,0.207,-0.0476,0.0598,0.165,-0.0648,-0.142,-0.0875,-0.0181
AGGAAAT,-0.0391,-0.0898,0.375,1.6,-0.0359,1.7,0.056,-0.0154,-0.00109,0.0629
CCACACG,0.0424,0.0207,-0.843,-0.136,0.0346,-0.833,0.109,0.0388,-0.0675,-0.194
TGGAAAT,0.0385,0.123,0.862,1.97,-0.00828,2.18,0.172,0.0923,0.143,0.279
GAACTTT,0.058,0.00361,-0.142,-1.92,-0.105,1.43,-0.254,-0.0553,0.0678,-0.0382
CGAGGGC,0.00819,0.058,0.0605,0.374,-0.139,0.174,0.0146,0.0643,0.0503,-0.0532
TTGTCGG,0.14,0.0306,0.449,1.25,0.0194,1.57,0.205,0.233,-0.0225,0.0509
AATTCGC,-0.00662,-0.115,-0.681,-0.692,0.0588,-1.19,0.0653,-0.0951,0.0339,-0.0234
CCCTGTC,-0.0642,-0.224,-0.0604,-0.312,-0.0367,-0.833,-0.203,-0.128,-0.214,-0.235
ATGTCCA,-0.0552,0.0236,-0.022,-1.02,-0.126,-0.375,-0.5,-0.00167,0.0622,0.0688
ATAGGCG,-0.0493,-0.0513,-0.702,0.803,-0.0289,-0.219,0.0563,-0.0512,-0.0638,-0.246
TTTAGTT,-0.117,-0.0795,0.0122,-2.15,-0.0361,-0.431,-0.816,0.00556,-0.145,-0.14
AATGAGA,0.136,0.0837,-0.333,-0.522,0.0883,-1.02,0.144,0.0744,0.0285,-0.044
ATGCCTG,-0.0501,-0.181,-0.0752,0.471,-0.0188,1.03,-0.0307,-0.0835,-0.205,-0.0819
AGAACGC,0.055,0.125,-0.0821,-0.0499,0.00766,-0.637,0.178,0.0519,-0.00867,0.0288
AATTGTT,-3.75,-4.09,-3.19,-3.28,-1.57,-2.35,-4.51,-1.56,0.0441,-1.3
GCGTCCG,-0.155,-0.0519,-0.701,-0.492,-0.0955,-0.718,0.0508,-0.0428,-0.0699,-0.149
TTAACTG,0.0377,0.00613,-0.198,-0.137,-0.00817,1.23,0.066,0.0205,0.0279,0.16
